Laboratory results taken from patent US20250122257A1, “USE OF KININ OR DERIVATIVE THEREOF IN TREATING VCI, PSCI, OR CSVD” (ZonHon Biopharma Institute, Inc., priority 2022, published 2025).
At least one peptide structure holds a part that was inferred or is arguable (an end, a ring closure or a residue). Some compounds share one wording; it may come from a single statement. Peptide text beside a SMILES is read from it.

Target: T1, B2 receptor (Homo sapiens, UniProt P30411)
T1 construct: expressed in transfected cells
T1 sequence (P30411 1-391): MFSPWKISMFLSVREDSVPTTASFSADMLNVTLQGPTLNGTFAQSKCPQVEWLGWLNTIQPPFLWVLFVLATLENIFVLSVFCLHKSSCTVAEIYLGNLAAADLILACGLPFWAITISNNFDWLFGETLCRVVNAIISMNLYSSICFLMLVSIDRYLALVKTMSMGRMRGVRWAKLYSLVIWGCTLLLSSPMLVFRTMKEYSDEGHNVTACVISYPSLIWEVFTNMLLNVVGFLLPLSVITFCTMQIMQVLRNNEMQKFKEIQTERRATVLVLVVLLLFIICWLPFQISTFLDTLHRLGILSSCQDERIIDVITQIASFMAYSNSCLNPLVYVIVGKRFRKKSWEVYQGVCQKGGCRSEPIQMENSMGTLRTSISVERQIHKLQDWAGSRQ
Assay: Affinity activity to B2 receptor, reporter gene assay in B2-NFAT-CHO-K1 cells
Type: cell-based
Settings: for Relative affinity activity to B2 receptor: relative activity calculated from EC50, B2-NFAT-CHO-K1 reporter gene, 5 hours; for B2 receptor affinity activity (in words): reporter gene assay, comparison in words
Experimental: The cell line B2-NFAT-CHO-K1 stably transfected with B2 receptor reporter gene was constructed based on CHO-K1 host cells and the cell library was constructed. The B2-NFAT-CHO-K1 cell library was used to evaluate the binding activity of lysyl bradykinin/bradykinin or its variants or PEG modified products to B2 receptor in vitro.
Detection methods: The cells were cultured in 96-well plates at 5×10^4cells/well, 37° C., 5% CO2 for 16-20 hours, and then gradient diluted standard and test solutions were added. After 5 hours, added Bio-Lite luciferase detection reagent and the chemiluminescence intensity was measured. GraphPad was used to make four-parameter equation curve and calculate the relative activity according to the EC50 value.
In vitro B2-receptor affinity activity and activity of activating downstream signaling pathway of PEG conjugates of lysyl bradykinin and its variants were tested, as in Example 3.

SMILES | Relative affinity activity to B2 receptor [%] | other results
N=C(N)NCCC[C@H](NC(=O)[C@H](CCCNC(=N)N)NC(=O)[C@H](Cc1ccccc1)NC(=O)[C@@H]1CCCN1C(=O)[C@H](CO)NC(=O)[C@H](Cc1cccs1)NC(=O)CNC(=O)[C@@H]1CCCN1C(=O)[C@@H]1CCCN1C(=O)[C@H](CCCNC(=N)N)NC(=O)[C@@H](N)CCCCN)C(=O)O [Lys-BKm06] (HELM PEPTIDE1{K.R.P.P.G.[O=C([C@H](Cc1cccs1)N[*:1])[*:2]].S.P.F.R.R}$$$$V2.0; N-terminus and C-terminus assumed) | 90 | –
N=C(N)NCCC[C@H](NC(=O)[C@H](Cc1ccccc1)NC(=O)[C@@H]1CCCN1C(=O)[C@H](CO)NC(=O)[C@H](Cc1cccs1)NC(=O)CNC(=O)[C@@H]1CCCN1C(=O)[C@@H]1CCCN1C(=O)[C@H](CCCNC(=N)N)NC(=O)[C@H](CCCNC(=N)N)NC(=O)[C@@H](N)CS)C(=O)O [Lys-BKm13] (HELM PEPTIDE1{C.R.R.P.P.G.[O=C([C@H](Cc1cccs1)N[*:1])[*:2]].S.P.F.R}$$$$V2.0; N-terminus and C-terminus assumed) | 115 | B2 receptor affinity activity (in words): higher activity than the wild type Lys-BK; B2 receptor affinity activity (in words) (listed as m13): increase B2R affinity activity
N=C(N)NCCC[C@H](NC(=O)[C@@H](N)CCCCN)C(=O)N1CCC[C@H]1C(=O)N1CCC[C@H]1C(=O)NCC(=O)N[C@@H](Cc1cccs1)C(=O)N[C@@H](CO)C(=O)N1CCC[C@H]1C(=O)N[C@@H](Cc1ccccc1)C(=O)O [Lys-BKm05] (HELM PEPTIDE1{K.R.P.P.G.[O=C([C@H](Cc1cccs1)N[*:1])[*:2]].S.P.F}$$$$V2.0; N-terminus and C-terminus assumed) | <10 | –
N=C(N)NCCC[C@H](NC(=O)[C@H](Cc1ccccc1)NC(=O)[C@@H]1CCCN1C(=O)[C@H](CO)NC(=O)[C@H](Cc1cccs1)NC(=O)CNC(=O)[C@@H]1CCCN1C(=O)[C@@H]1CCCN1C(=O)[C@H](CCCNC(=N)N)NC(=O)[C@@H](N)CS)C(=O)O [Lys-BKm15] (HELM PEPTIDE1{C.R.P.P.G.[O=C([C@H](Cc1cccs1)N[*:1])[*:2]].S.P.F.R}$$$$V2.0; N-terminus and C-terminus assumed) | 125 | B2 receptor affinity activity (in words): higher activity than the wild type Lys-BK
N=C(N)NCCC[C@H](NC(=O)[C@H](Cc1cccs1)NC(=O)[C@@H]1CCCN1C(=O)[C@H](CO)NC(=O)[C@H](Cc1cccs1)NC(=O)CNC(=O)[C@@H]1CCCN1C(=O)[C@@H]1CCCN1C(=O)[C@H](CCCNC(=N)N)NC(=O)[C@@H](N)CCCCN)C(=O)O [Lys-BKm07] (HELM PEPTIDE1{K.R.P.P.G.[O=C([C@H](Cc1cccs1)N[*:1])[*:2]].S.P.[O=C([C@H](Cc1cccs1)N[*:1])[*:2]].R}$$$$V2.0; N-terminus and C-terminus assumed) | <10 | –
N=C(N)NCCC[C@H](NC(=O)[C@H](Cc1c[nH]cn1)NC(=O)[C@@H]1CCCN1C(=O)[C@H](CO)NC(=O)[C@H](Cc1ccccc1)NC(=O)CNC(=O)[C@@H]1CCCN1C(=O)[C@@H]1CCCN1C(=O)[C@H](CCCNC(=N)N)NC(=O)[C@@H](N)CCCCN)C(=O)O [Lys-BKm04] (H-KRPPGFSPHR-OH; N-terminus and C-terminus assumed) | <10 | –
N=C(N)NCCC[C@H](NC(=O)[C@H](Cc1ccccc1)NC(=O)[C@@H]1CCCN1C(=O)[C@H](CO)NC(=O)[C@H](Cc1c[nH]cn1)NC(=O)CNC(=O)[C@@H]1CCCN1C(=O)[C@@H]1CCCN1C(=O)[C@H](CCCNC(=N)N)NC(=O)[C@@H](N)CCCCN)C(=O)O [Lys-BKm03] (H-KRPPGHSPFR-OH; N-terminus and C-terminus assumed) | <10 | –
N=C(N)NCCC[C@H](NC(=O)[C@H](Cc1ccccc1)NC(=O)[C@@H]1CCCN1C(=O)[C@H](CO)NC(=O)[C@H](Cc1cccs1)NC(=O)CNC(=O)[C@@H]1CCCN1C(=O)[C@@H]1CCCN1C(=O)[C@H](CCCNC(=N)N)NC(=O)[C@H](CCCNC(=N)N)NC(=O)[C@@H](N)CCCCN)C(=O)O [Lys-BKm11] (HELM PEPTIDE1{K.R.R.P.P.G.[O=C([C@H](Cc1cccs1)N[*:1])[*:2]].S.P.F.R}$$$$V2.0) | 110 | B2 receptor affinity activity (in words): higher activity than the wild type Lys-BK; B2 receptor affinity activity (in words) (listed as m11): increase B2R affinity activity
N=C(N)NCCC[C@H](NC(=O)[C@H](Cc1ccccc1)NC(=O)[C@@H]1CCCN1C(=O)[C@H](CO)NC(=O)[C@H](Cc1cccs1)NC(=O)CNC(=O)[C@@H]1CCCN1C(=O)[C@@H]1CCCN1C(=O)[C@H](CCCNC(=N)N)NC(=O)[C@H](CCCNC(=N)N)NC(=O)[C@H](Cc1ccccc1)NC(=O)[C@@H]1CCCN1C(=O)[C@H](CO)NC(=O)[C@H](Cc1cccs1)NC(=O)CNC(=O)[C@@H]1CCCN1C(=O)[C@@H]1CCCN1C(=O)[C@H](CCCNC(=N)N)NC(=O)[C@@H](N)CCCCN)C(=O)O [Lys-BKm12] (HELM PEPTIDE1{K.R.P.P.G.[O=C([C@H](Cc1cccs1)N[*:1])[*:2]].S.P.F.R.R.P.P.G.[O=C([C@H](Cc1cccs1)N[*:1])[*:2]].S.P.F.R}$$$$V2.0; N-terminus and C-terminus assumed) | 100 | –
N=C(N)NCCC[C@H](NC(=O)[C@H](Cc1ccccc1)NC(=O)[C@@H]1CCCN1C(=O)[C@H](CO)NC(=O)[C@H](Cc1cccs1)NC(=O)CNC(=O)[C@@H]1CCCN1C(=O)[C@@H]1CCCN1C(=O)[C@H](CCCNC(=N)N)NC(=O)[C@@H](N)CCCCN)C(=O)O [Lys-BKm01] (HELM PEPTIDE1{K.R.P.P.G.[O=C([C@H](Cc1cccs1)N[*:1])[*:2]].S.P.F.R}$$$$V2.0; N-terminus and C-terminus assumed) | 100 | –
N=C(N)NCCC[C@H](NC(=O)[C@H](Cc1ccccc1)NC(=O)[C@@H]1CCCN1C(=O)[C@H](CO)NC(=O)[C@H](Cc1cccs1)NC(=O)CNC(=O)[C@@H]1CCCN1C(=O)[C@@H]1CCCN1C(=O)[C@@H](N)CCCNC(=N)N)C(=O)O [Lys-BKm02] (HELM PEPTIDE1{R.P.P.G.[O=C([C@H](Cc1cccs1)N[*:1])[*:2]].S.P.F.R}$$$$V2.0; N-terminus and C-terminus assumed) | 100 | –
N=C(N)NCCC[C@H](NC(=O)[C@H](Cc1ccccc1)NC(=O)[C@@H]1CCCN1C(=O)[C@H](CO)NC(=O)[C@H](Cc1ccccc1)NC(=O)CNC(=O)[C@@H]1CCCN1C(=O)[C@@H]1CCCN1C(=O)[C@H](CCCNC(=N)N)NC(=O)[C@@H](N)CCCCN)C(=O)O [Lys-BK, lysyl bradykinin, reference compound] | 100 | –
N=C(N)NCCC[C@H](NC(=O)[C@H](Cc1ccccc1)NC(=O)[C@@H]1CCCN1C(=O)[C@H](CO)NC(=O)[C@H](Cc1cccs1)NC(=O)CNC(=O)[C@@H]1CCCN1C(=O)[C@@H]1CCCN1C(=O)[C@H](CCCNC(=N)N)NC(=O)[C@H](CCCCN)NC(=O)[C@H](CCCNC(=N)N)NC(=O)[C@H](Cc1ccccc1)NC(=O)[C@@H]1CCCN1C(=O)[C@H](CO)NC(=O)[C@H](Cc1cccs1)NC(=O)CNC(=O)[C@@H]1CCCN1C(=O)[C@@H]1CCCN1C(=O)[C@H](CCCNC(=N)N)NC(=O)[C@@H](N)CCCCN)C(=O)O [Lys-BKm14] (HELM PEPTIDE1{K.R.P.P.G.[O=C([C@H](Cc1cccs1)N[*:1])[*:2]].S.P.F.R.K.R.P.P.G.[O=C([C@H](Cc1cccs1)N[*:1])[*:2]].S.P.F.R}$$$$V2.0; N-terminus and C-terminus assumed) | 100 | –
